Experimental data from publication PMC4336329 (PLoS ONE, 2015).
In all, about 310,000 compounds went through this assay and about 2,200 (0.71%) showed an effect of 50% or more. Effects have a minus sign here. Some of the results follow.

molecular target: human ether-à-go-go-related gene (hERG) potassium channel (human, UniProt Q12809); experiment: primary screen, population patch clamp on CHO cells stably expressing hERG
Sequence (Q12809 whole entry, looked up): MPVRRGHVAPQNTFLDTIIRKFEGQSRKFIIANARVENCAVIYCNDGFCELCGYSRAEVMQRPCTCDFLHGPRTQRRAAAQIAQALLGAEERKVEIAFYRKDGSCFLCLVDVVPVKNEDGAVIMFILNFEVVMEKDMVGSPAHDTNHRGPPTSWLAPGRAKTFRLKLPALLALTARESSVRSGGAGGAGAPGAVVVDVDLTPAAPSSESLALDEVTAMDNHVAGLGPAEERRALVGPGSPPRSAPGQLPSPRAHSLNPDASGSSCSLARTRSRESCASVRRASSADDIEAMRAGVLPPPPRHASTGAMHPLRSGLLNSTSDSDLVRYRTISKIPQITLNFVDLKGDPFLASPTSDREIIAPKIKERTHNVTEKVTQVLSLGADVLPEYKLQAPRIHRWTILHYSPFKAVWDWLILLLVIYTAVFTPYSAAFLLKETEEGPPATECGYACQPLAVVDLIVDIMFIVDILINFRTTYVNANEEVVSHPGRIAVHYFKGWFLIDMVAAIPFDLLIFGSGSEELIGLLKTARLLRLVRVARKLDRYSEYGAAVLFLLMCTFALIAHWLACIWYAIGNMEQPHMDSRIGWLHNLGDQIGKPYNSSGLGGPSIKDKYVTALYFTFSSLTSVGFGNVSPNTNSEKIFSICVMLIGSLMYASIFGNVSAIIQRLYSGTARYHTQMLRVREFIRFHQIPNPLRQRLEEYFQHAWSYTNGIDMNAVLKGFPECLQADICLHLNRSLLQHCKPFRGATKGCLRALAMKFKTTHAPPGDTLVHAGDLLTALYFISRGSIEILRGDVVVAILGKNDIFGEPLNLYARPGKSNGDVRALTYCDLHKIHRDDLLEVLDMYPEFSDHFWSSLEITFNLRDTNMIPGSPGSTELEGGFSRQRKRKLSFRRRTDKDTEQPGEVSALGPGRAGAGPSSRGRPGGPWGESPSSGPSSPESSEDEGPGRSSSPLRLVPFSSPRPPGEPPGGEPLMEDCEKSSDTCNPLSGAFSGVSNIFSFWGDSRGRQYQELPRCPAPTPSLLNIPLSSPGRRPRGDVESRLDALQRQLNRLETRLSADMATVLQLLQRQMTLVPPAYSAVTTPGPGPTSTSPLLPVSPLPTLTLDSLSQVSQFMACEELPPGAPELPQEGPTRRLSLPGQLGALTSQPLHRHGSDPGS

| SMILES | hERG current change (%, negative = inhibition) at 1uM |
| --- | --- |
| CC(c1cccs1)N(Cc1ccco1)C(=S)Nc1ccc(F)c(Cl)c1 (stereo not shown) | 10.4% |
| COc1cccc(NC(=O)c2ccc(-n3cccn3)nc2)c1 | 9.6% |
| O=C(COC(=O)C1Cc2ccccc2CN1C(=O)c1ccccc1Cl)Nc1ccc(N2CCOCC2)cc1 (stereo not shown) | 10.8% |
| Cc1cc(C)c(C(=O)COC(=O)CNC(=O)c2ccccc2C)c(C)c1 | 11.6% |
| O=[N+]([O-])c1ccc2nc(/C=C/c3ccc(Cl)cc3)[nH]c2c1 | 7.42% |
| COc1ccc(S(=O)(=O)NC(C)C(=O)Nc2ccccc2)cc1Cl (stereo not shown) | 13.9% |
| O=C(c1cccc(C(F)(F)F)c1)N1CCC(O)(CS(=O)(=O)Cc2ccc(Cl)cc2)CC1 | 17.2% |
| CNC(=S)N/N=C/c1ccc(OCC(=O)Nc2c(C)cc(C)cc2C)c(OC)c1 | 7.08% |
| COc1ccc(/C=C(\NC(=O)c2ccc(OC)cc2)C(=O)Nc2cccc(C(=O)O)c2)cc1 | 14.5% |
| Cc1nc(SCC(=O)O)c(C#N)c2c1CCCC2 | -5.46% |
| O=C(c1ccc(S(=O)(=O)Nc2ccccc2)cc1)N1CCCCCCC1 | 12.1% |
| COc1cccc(OCc2cc(C(=O)N(C)Cc3nc4ccccc4[nH]3)no2)c1 | 9.07% |
| CC(=O)c1ccc(NC(=O)CNCC(c2ccccc2)N(C)C)cc1.O=C(O)C(=O)O (stereo not shown) | 0.601% |
| O=C(NCCCO)c1cc2ccccc2[nH]1 | 5.51% |
| O=C1CCC(C(=O)N(Cc2cccs2)C2(C(=O)NC3CCCCC3)CCCCC2)N1 (stereo not shown) | 7.99% |
| CSc1cccc(NS(=O)(=O)c2ccc3c(c2)CCN3C(C)=O)c1 | 18.1% |
| CS(=O)(=O)N(CC(=O)NCc1ccco1)c1ccccc1Cl | -4.59% |
| CC(=O)C1=C(O)C(=O)N(c2ccc(Br)cn2)C1c1ccc(Br)cc1 (stereo not shown) | 13.6% |
| COc1ccc(C(=O)N2CCC(n3nccc3NC(=O)C3CC3)CC2)c(OC)c1OC | 21.3% |
| CCOc1cccc2cc(C(=O)N3CC(C)OC(C)C3)c(=O)oc12 (stereo not shown) | 10.6% |
| Cc1cc(C)c(S(=O)(=O)Nc2ncn[nH]2)cc1C | 30% |
| Fc1ccccc1CSc1nnc(Cn2cnc3ccccc32)n1-c1ccccc1 | 4.67% |

| SMILES | hERG current change (%, negative = inhibition) at 1uM |
| --- | --- |
| Cc1cc(-n2cnc3c(=O)[nH]cnc32)ccc1N | 12.6% |
| CC(C)(C)c1ccc(OCCOc2ccc(C(C)(C)C)cc2NC=O)c(NC=O)c1 | 10% |
| Cc1ccc(C(=O)CSc2nccn2-c2ccccc2)cc1 | 6.45% |
| COCCNC(=O)c1ccc(-c2csc(C)n2)cc1 | 11.5% |
| CC1CCC2(CC1)NC(=O)N(CC(=O)c1ccc(CNC(=O)C(C)(C)C)s1)C2=O (stereo not shown) | 1.25% |
| COC(=O)N/N=C/c1cc(Cl)cc(Cl)c1OCc1ccccc1F | 12.8% |
| FC(F)(F)c1cccc(N2Cc3ccccc3C2)c1 | 9.35% |
| CC1=C(CC(=O)O)c2cc(F)ccc2/C1=C/c1ccc(S(C)(=O)=O)cc1 | 17% |
| COc1cccc(Cn2c(=O)ccc3ccccc32)c1 | 5.85% |
| CC(C)N(C(=O)Cn1c(SCC(=O)NCc2ccc3c(c2)OCO3)nc2ccccc21)C(C)C | -10.6% |
| O=C(NCc1ccccc1)C1CC(=O)N(c2ccc(OCC(=O)N3CCOCC3)cc2)C1 (stereo not shown) | 5.03% |
| Cc1c(N2C(=O)CSC2c2ccco2)c(=O)n(-c2ccccc2)n1C (stereo not shown) | 0.905% |
| OCC1N=C(c2ccccn2)OC1c1ccccc1 (stereo not shown) | 17.2% |
| O=C(CSc1nc2ccccc2c(=O)n1CCCN1CCOCC1)Nc1ccc2c(c1)OCO2 | -12.7% |
| COCCNC(=O)Cn1nc(C(F)(F)F)cc1C | 6.49% |
| O=C(N/N=C/c1ccc(OCc2ccccc2)cc1)c1ccc(O)cc1 | 16.4% |
| CC(=O)C1=C(C)NC(SCC(N)=O)=C(C#N)C1CC(C)C (stereo not shown) | 20.3% |
| COc1ccc(NC(=O)c2ccc3c(c2)C(=O)N(Cc2cccnc2)C3=O)c(OC)c1 | 1.82% |
| CN(C)c1ccc(P(=O)(OC2CCCCC2)C(Nc2ccccc2)c2cccnc2)cc1 (stereo not shown) | 12.7% |
| COC(=O)Cc1ccc(Oc2ncc(C(F)(F)F)cc2Cl)cc1 | 15.9% |
| COc1cccc(/C=N/Nc2nc(C)cc(=O)[nH]2)c1OC | 10.7% |
| CCCCCC(=O)Nc1ccccc1N1CCOCC1 | 3.19% |

| SMILES | hERG current change (%, negative = inhibition) at 1uM |
| --- | --- |
| Cc1nc(Nc2nc3c(c(=O)[nH]2)CCC3)nc2ccccc12 | -5.38% |
| O=C(CN1C(=O)NC(c2ccccc2)(c2ccccc2)C1=O)NCCNCCO | 22.7% |
| CC(C)(CO)CNC(=O)CCc1nnc(Cc2ccc(-c3ccccc3)cc2)o1 | 4.36% |
| N#Cc1cc(-c2ccccc2)c[nH]c1=O | 16.4% |
| O=[N+]([O-])c1ccc(/C=N/NC(=S)Nc2ccccc2F)o1 | 3.67% |
| O=C(O/N=C1\CCCc2ccccc21)c1cccc(Cl)c1 | 5.58% |
| Cc1noc(C)c1COC(=O)CNC(=O)c1cccc(F)c1 | 7.55% |
| CS(=O)(=O)N(CC(=O)N1CCOCC1)c1cc(Cl)ccc1Cl | 15% |
| COc1cccc(NC(=O)C2CCN(S(C)(=O)=O)CC2)c1 | 5.92% |
| CCn1ccnc1C(O)c1ccc(N(C)C)cc1 (stereo not shown) | 14.7% |
| COc1ccc(-c2nc3cnccn3c2Nc2ccc(C)cc2)cc1 | 15.9% |
| COc1cc2c(cc1OC)C(=O)Cc1ccc3c(c1CN(C)CC2)OCO3 | -39.4% |
| CCN(Cc1cnn(C)c1)C(=O)c1cc(COc2ccc(F)cc2F)on1 | 2.01% |
| COc1ccc(C(=O)N/C(=C\c2cn(S(=O)(=O)N(C)C)c3ccccc23)C(=O)N2CCN(C)CC2)cc1 | -15.5% |
| COc1ccc(N2CCN(c3ncccn3)CC2)cc1 | 8.11% |
| O=C(CC(Nc1ccc(F)cc1)C(=O)OCC(=O)c1cccs1)c1ccccc1 (stereo not shown) | 10.6% |
| CN(c1ccccc1)S(=O)(=O)c1ccc(C(=O)OCC(=O)NCc2cccs2)cc1 | 8.57% |
| CC(=O)c1c(C)[nH]c(C(=O)Nc2nc(-c3ccccc3)c(C)s2)c1C | -2.64% |
| CS(=O)(=O)c1ccc(C(=O)OCC(=O)NC(=O)Cc2ccccc2)cc1 | 1.47% |
| COc1ccc(C2=NC(C)(C)Cc3cc(OC)c(OC)cc32)cc1OC.Cl | 3.53% |
| FC(F)(F)c1cccnc1Oc1ccc(C2=NCCS2)cc1 | 9.75% |
| COc1ccc(CNC(=O)C(C)n2nc(C)c3c(C)n(-c4ccccc4)nc3c2=O)c(OC)c1 (stereo not shown) | 12.4% |

| SMILES | hERG current change (%, negative = inhibition) at 1uM |
| --- | --- |
| O=C(NCCN1CCOCC1)c1ccc(Cl)cc1O | 9.62% |
| O=C(CSc1nc2ccccc2n1CC(=O)NCc1ccccc1)NCc1ccco1 | 3.15% |
| COc1ccccc1NC(=O)CSc1nc2nccnc2c(=O)n1Cc1cccs1 | -19.1% |
| O=C(NC(N1CCOCC1)C(Cl)(Cl)Cl)c1ccccc1Cl (stereo not shown) | 5.58% |
| O=C(Nc1ccccc1-c1nc2ccccc2s1)c1cccnc1Cl | 5.88% |
| CN(C)c1ccc(NC2=C([N+](=O)[O-])CS(=O)(=O)C2)cc1 | 3.75% |
| O=C(Cc1csc(-c2ccccc2)n1)NCc1ccco1 | 8.73% |
| O=C1c2ccccc2C2=Nc3ccccc3SC(c3ccccc3F)C12 (stereo not shown) | 7.51% |
| Cc1c(C(=O)O)oc2c1C(O)CC(C)(C)C2 (stereo not shown) | 8.24% |
| O=C(c1ccc(-n2cncn2)c([N+](=O)[O-])c1)N1CCN(S(=O)(=O)c2ccccc2F)CC1 | 5.37% |
| CCS(=O)(=O)c1nc(S(=O)(=O)c2ccc(C)cc2)c(NCCCn2ccnc2)s1 | 10.5% |
| CCOC(=O)c1c(S(=O)(=O)N2CCN(c3ccc(C(C)=O)cc3)CC2)c(C)n(C)c1C | 13% |
| O=C(NCc1cccnc1)/C(=N\O)c1ccccc1 | 1.64% |
| COc1ccc(-c2nc(CS(=O)CC(=O)NCCC3=CCCCC3)c(C)o2)cc1 (stereo not shown) | 2.52% |
| CC(=O)NC1C(Oc2ccccc2C)OC(CO)C(O)C1O (stereo not shown) | 7.79% |
| CCOC(=O)c1sc(C)c2c1NC1(CCCCC1)NC2=O | -8.48% |
| COC(=O)C(C)Sc1nc(N)c(NC(=O)c2ccco2)c(=O)[nH]1 (stereo not shown) | 10.1% |
| O=C(O)COc1ccccc1/C=N/NC(=O)c1cccc(S(=O)(=O)N2CCOCC2)c1 | 7.13% |
| Cc1cc(C)cc(Nc2nc3ccccc3c(=O)[nH]2)c1 | 15.6% |
| COc1ccccc1CN1C(=O)c2cccc3cccc(c23)C1=O | 2.75% |
| S=c1[nH]nc(-c2cc(-c3ccco3)[nH]n2)n1-c1cccc2ccccc12 | 3.73% |
| C/C(=N\NC(=S)NCc1ccccc1)c1ccc(Br)cc1 | 17.2% |
